Whole data set: some 33,000 sequences, median “E-score (-0.5 to 0.5)” near -0.035, cut for the highest 2% near 0.34. This is one part of the list.
Each sequence was assayed against T1, Mot3 (UniProt P54785) (assay: PBM E-score (8-mer binding enrichment) (E-score (-0.5 to 0.5)); higher = stronger / more preferred TF binding; most listed sequences are background and not binding sites). Conditions: protein concentration: 200 nM; construct: GST-full length.
T1 sequence: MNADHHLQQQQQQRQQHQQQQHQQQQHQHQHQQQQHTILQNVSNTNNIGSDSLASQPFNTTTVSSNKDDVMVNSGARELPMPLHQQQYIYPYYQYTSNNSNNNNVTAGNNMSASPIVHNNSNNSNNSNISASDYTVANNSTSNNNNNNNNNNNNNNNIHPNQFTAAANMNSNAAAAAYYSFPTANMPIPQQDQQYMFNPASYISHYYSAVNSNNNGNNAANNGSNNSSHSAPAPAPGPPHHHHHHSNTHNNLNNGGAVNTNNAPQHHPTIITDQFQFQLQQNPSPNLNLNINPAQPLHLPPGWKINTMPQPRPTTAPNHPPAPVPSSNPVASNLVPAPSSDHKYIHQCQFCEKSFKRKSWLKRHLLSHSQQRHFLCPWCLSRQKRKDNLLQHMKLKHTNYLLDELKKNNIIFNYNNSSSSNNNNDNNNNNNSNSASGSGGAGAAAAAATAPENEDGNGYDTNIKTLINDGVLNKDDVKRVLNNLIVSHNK
Description: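 Universal 'all 10-mer' protein binding microarrays (Agilent AMADID 015681) probed with GST-tagged S. cerevisiae TFs (full-length or DBD) made by in vitro transcription/translation (PURExpress), about 100-200 nM. Bound TF was detected with fluorescent anti-GST. Each ungapped 8-mer (which stands for itself and its reverse complement) is scored by the PBM enrichment score (E-score), a modified Wilcoxon-Mann-Whitney statistic from -0.5 to +0.5, computed with the Universal PBM Analysis Suite. Scale: above 0.35 generally sequence-specific binding.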

Row | Sequence | PBM E-score
1 | ATACCGCA | -0.142
2 | CTGGTCCA | -0.209
3 | CCTGTGCC | 0.361
4 | GATAGCGA | -0.243
5 | CCAGCTAG | -0.0732
6 | AGAAGAAG | -0.0319
7 | CTCAGGCA | 0.462
8 | ATACGCGA | 0.284
9 | CAGTCTCG | -0.328
10 | CTCTACTA | 0.069
11 | ATACAGGG | 0.0916
12 | GTTGGCGA | -0.149
13 | CCGGATCA | 0.0643
14 | AATACGAT | 0.158
15 | CCGATGCA | -0.177
16 | GTACTAGA | 0.125
17 | AAGCCTGA | -0.142
18 | ACTTAGTA | -0.0217
19 | GAACCTAC | 0.213
20 | ACATCGGG | -0.13
21 | ACTTACAG | 0.104
22 | CGCGGTCA | -0.223

Row | Sequence | PBM E-score
23 | GGTGCCCA | 0.293
24 | ATCAACGC | 0.194
25 | AGTACGTG | 0.0527
26 | ATACAGAG | -0.0429
27 | GCCGCAAC | -0.095
28 | CTTGCAAC | 0.162
29 | AAAATCCC | -0.0307
30 | GCTGACAA | 0.04
31 | ATAGCTGC | 0.066
32 | GCGGGCAA | 0.00608
33 | AATTCGCC | -0.0364
34 | CCCAACTA | -0.0155
35 | CCCGAGAG | -0.295
36 | CTACGTGA | 0.173
37 | GGTTGGCA | -0.0888
38 | CTAAGTCA | -0.129
39 | CATTCGTC | -0.119
40 | AGCGCTAC | -0.105
41 | CTGCCATA | -0.015
42 | AAAGAGGG | -0.153
43 | AATCTTAG | -0.0748
44 | AGTGTTAT | 0.143

Row | Sequence | PBM E-score
45 | ATTTGCGC | -0.0706
46 | GATCCCAC | -0.211
47 | GTAGATGA | 0.0841
48 | GGCGAAAC | -0.117
49 | TGGATCCA | 0.0475
50 | CCCATCTA | -0.135
51 | ACACCATA | 0.0856
52 | ACTACGTA | 0.162
53 | ATGATCCA | -0.249
54 | TAACCATA | 0.0618
55 | AATCTAAC | 0.108
56 | AATATTGT | 0.113
57 | GCGTTTGA | -0.101
58 | AGCATATC | -0.101
59 | CAGGTAGG | -0.039
60 | CACTTGGA | -0.0183
61 | ACTAGTAA | 0.233
62 | AGAGTCAC | -0.148
63 | ACATTCGG | 0.133
64 | GAACAGCC | -0.123
65 | AGGCCCTA | -0.042
66 | AGATACTA | -0.205

Row | Sequence | PBM E-score
67 | CACTACGC | 0.0645
68 | ATCCAGGA | -0.00502
69 | GAGCAAAA | -0.0379
70 | CAACTGCG | -0.12
71 | CTCCCTCC | -0.107
72 | AACCATAC | -0.147
73 | TGACTACA | 0.335
74 | TCTAGGAA | 0.315
75 | GAGAAAGA | -0.107
76 | AGCCATCA | -0.0385
77 | GACTGAAA | -0.0442
78 | AATATTAT | 0.0776
79 | CGTTAACC | 0.187
80 | CGAAAACC | -0.0691
81 | CATAGGCG | 0.0696
82 | TACACCTA | 0.15
83 | GTATAGCA | 0.0677
84 | CCTTCCAA | 0.145
85 | GCTAGAGC | 0.011
86 | GAACGCTA | -0.217
